# The campaign covered roughly 310,000 compounds. About 14,000 (4.5%) showed an effect of 50% or more. The effect is printed as a negative number. The list shows a part of the results.
# Molecular target: human ether-à-go-go-related gene (hERG) potassium channel (human, UniProt Q12809)
# Experiment: primary screen, population patch clamp on CHO cells stably expressing hERG
# 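Note: peak tail current of the secondary pulse compared with the same well before compound.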
# Sequence of human ether-à-go-go-related gene (hERG) potassium channel (Q12809 whole entry, looked up): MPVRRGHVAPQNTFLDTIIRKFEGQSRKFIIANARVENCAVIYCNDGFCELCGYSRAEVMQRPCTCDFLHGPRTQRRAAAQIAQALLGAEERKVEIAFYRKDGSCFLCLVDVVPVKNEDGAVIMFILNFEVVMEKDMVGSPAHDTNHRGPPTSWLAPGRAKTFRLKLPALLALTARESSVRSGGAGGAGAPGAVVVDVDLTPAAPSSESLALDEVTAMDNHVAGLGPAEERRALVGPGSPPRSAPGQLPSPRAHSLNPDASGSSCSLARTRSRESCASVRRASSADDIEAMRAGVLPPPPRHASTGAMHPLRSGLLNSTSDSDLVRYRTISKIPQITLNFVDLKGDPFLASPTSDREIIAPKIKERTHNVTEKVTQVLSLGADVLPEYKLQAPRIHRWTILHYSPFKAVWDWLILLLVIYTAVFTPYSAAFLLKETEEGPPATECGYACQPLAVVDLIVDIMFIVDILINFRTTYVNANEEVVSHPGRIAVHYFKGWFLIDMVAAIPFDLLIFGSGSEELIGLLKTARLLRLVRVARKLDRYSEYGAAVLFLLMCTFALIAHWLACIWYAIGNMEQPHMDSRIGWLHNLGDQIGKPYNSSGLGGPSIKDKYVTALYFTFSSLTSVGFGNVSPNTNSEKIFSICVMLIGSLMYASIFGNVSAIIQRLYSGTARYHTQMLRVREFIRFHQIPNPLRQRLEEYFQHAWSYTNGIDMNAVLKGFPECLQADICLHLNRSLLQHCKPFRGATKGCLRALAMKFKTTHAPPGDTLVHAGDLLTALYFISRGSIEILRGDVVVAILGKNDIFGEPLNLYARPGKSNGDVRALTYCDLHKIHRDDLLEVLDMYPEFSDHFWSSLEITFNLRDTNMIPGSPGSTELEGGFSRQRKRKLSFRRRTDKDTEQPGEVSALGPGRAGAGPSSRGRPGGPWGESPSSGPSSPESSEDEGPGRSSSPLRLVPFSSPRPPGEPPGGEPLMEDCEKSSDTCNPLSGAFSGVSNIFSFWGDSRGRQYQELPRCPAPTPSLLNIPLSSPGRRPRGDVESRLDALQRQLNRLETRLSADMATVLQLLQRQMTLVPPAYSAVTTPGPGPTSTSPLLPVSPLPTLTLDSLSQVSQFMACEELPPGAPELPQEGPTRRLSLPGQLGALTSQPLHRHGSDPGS
row,SMILES,"hERG current change (%, negative = inhibition) at 10uM [%]"
1,O=C(c1cccs1)N1CCC(C(=O)N2CCN(Cc3ccc4c(c3)OCO4)CC2)CC1,-59.9
2,Cc1ccc(S(=O)(=O)N2CCN(C(=O)c3c(C)nn(-c4ccccc4)c3Cl)CC2)cc1,-28.8
3,CCN(c1ccccc1)S(=O)(=O)c1ccc(OC)c(NC(=O)Cc2ccccc2OC)c1,-7.96
4,COc1ccc(S(=O)(=O)N2CCN(CC(=O)NCC3(N4CCOCC4)CCCCC3)CC2)cc1,-25.3
5,COc1ccc(OC)c2[nH]c(=O)c(CCNC(=O)C3CCCCC3)cc12,-18.4
6,O=C(N=C1SC2CS(=O)(=O)CC2N1CCc1ccccc1)C1CC1 (stereo not drawn),2.56
7,CCN1CCCC(OC(=O)c2cc(-c3ccc(C)cc3)nc3ccccc23)C1.Cl (stereo not drawn),-8.97
8,Cc1cccc(C)c1NC(=O)Cn1cnc2c(=O)n(C)c(=O)n(C)c21,9.06
9,O=C(c1cccc(C(F)(F)F)c1)N(c1ccccn1)C1CCCCC1,2.35
10,O=C(OCC1OC(n2ncc(=O)[nH]c2=O)C(OC(=O)c2ccccc2)C1OC(=O)c1ccccc1)c1ccccc1 (stereo not drawn),14.6
11,Cc1nc2ccc(NC(=O)c3cc(S(=O)(=O)N4CCOCC4)ccc3C)cc2s1,-0.181
12,COc1ccc2cc(C(=O)CS(=O)(=O)c3ccccc3)c(=O)oc2c1,14.2
13,O=S(=O)(c1cccs1)N1CCCc2ccccc21,-12.9
14,O=C(O)/C(=C\c1ccc(C(F)(F)F)cc1)c1ccc(S(=O)(=O)N2CCCC2)s1,14.8
15,O=C(NCc1cccnc1)c1cc2nc(-c3ccc4c(c3)OCO4)cc(C(F)(F)F)n2n1,3.07
16,CCc1cc2cc3c(cc2nc1SCC(=O)N1CCN(C(=O)c2ccco2)CC1)OCO3,-28.7
17,COc1ccc(-c2c3c(=O)n(C)c(=O)n(C)c3cn2Cc2ccccn2)cc1,1.24
18,CN1CCN(C(=O)c2cc(=O)c3cc(Cl)cc(Cl)c3o2)CC1,-31.3
19,COc1cc2nc(/C=C/c3ccc(N(C)C)cc3)sc2cc1SC,5.81
20,COC(=O)C1CCN(c2c([N+](=O)[O-])cc(C(F)(F)F)cc2[N+](=O)[O-])CC1,-7.59
21,CCN(CC)C(=O)C1CCCN(C(=O)c2cc(COc3cccc(OC)c3)on2)C1 (stereo not drawn),-35.9
22,O=C(Nc1ccccc1C(=O)Nc1nncs1)c1ccccc1,22.2
23,Nc1ncnc2nc(SCCN3CCCCC3)[nH]c12,-0.28
24,O=[N+]([O-])c1ccc(N/N=C\c2ccccc2OCc2ccccc2)cc1,13.2
25,CCOc1cc(/C=C2/C(=N)N3OC(C)=CC3=NC2=O)ccc1OC(=O)c1ccco1,-1.82
26,COC(=O)COc1ccc(S(=O)(=O)NCc2cccnc2)cc1,0.304
27,Cc1ccc2nc(Nc3nc(CSc4nnc(C)s4)cc(=O)[nH]3)nc(C)c2c1,-37.1

row,SMILES,"hERG current change (%, negative = inhibition) at 10uM [%]"
1,COc1ccc(CCNC(=O)CSc2nn3c(=O)c(C)nnc3s2)cc1OC,6.31
2,Cn1cnnc1SCc1ccc(-c2ccc(Br)cc2)o1,3.82
3,CCOc1ccc(S(=O)(=O)NCCC2=CCCCC2)c2ccccc12,-2.82
4,O=C(Cn1nnc(-c2ccccc2)n1)NNC(=O)c1ccccc1,-14.7
5,Cc1ccc(NC(=O)C2CCCN(S(=O)(=O)c3ccc4c(c3)oc(=O)n4C)C2)nc1 (stereo not drawn),-29.6
6,O=C(Nc1sccc1C(=O)N1CCOCC1)c1cccnc1,-0.956
7,CS(=O)(=O)c1ccccc1-c1nnc(NC(=O)CCS(=O)(=O)c2ccc(Cl)cc2)o1,-10.1
8,CCOC(=O)c1sc2nc(N3CCCC3)c3c(c2c1N)CC(C)(C)OC3,10.4
9,Cc1cc(Br)c(S(=O)(=O)NCCN2CCOCC2)cc1C,7.8
10,O=S(=O)(c1cccc2nsnc12)N1CCc2ccccc2C1,-34.8
11,CC(C)Cn1c(SCC(=O)N(C)C2CCS(=O)(=O)C2)nc2cc(Cl)ccc2c1=O (stereo not drawn),-31.5
12,CCOc1ccccc1Nc1nnc(SCC(=O)N2CCCC2)s1,-2.79
13,Cc1c(OC(C)C(=O)NCCCn2ccnc2)ccc2c3c(c(=O)oc12)CCC3 (stereo not drawn),-0.297
14,CCc1ccc(NC(=O)Cn2ncn3c(cc4ccccc43)c2=O)cc1,4.26
15,Cn1nnc(NC(=S)NC(=O)c2cc3ccccc3o2)n1,17.7
16,CC(C)COc1ccc(C(=O)NNC(=O)c2ccc(=O)[nH]c2)cc1,-1.31
17,CCC(=O)Nc1ccc(C=C(C(C)=O)C(C)=O)cc1,16.9
18,Cc1cc(C)c(S(=O)(=O)NC2CC(C)(C)NC(C)(C)C2)cc1Br,-15.8
19,CCCc1cc(=O)[nH]c(SCC(=O)N2CCOCC2)n1,13.3
20,CCOC(=O)C1CCCN(C(=O)CN2C(=O)COc3ccc(C(C)(C)C)cc32)C1 (stereo not drawn),-21.4
21,CCOC(=O)N1CCC(NC(=O)c2cc(C(=O)Nc3ccc(F)cc3F)ccc2CO)CC1,-6.2
22,CNS(=O)(=O)c1cccc(C(=O)NCC(C)(C)N2CCCCC2)c1,9.27
23,CCOc1ccc(CCNC(=O)COC(=O)CNS(=O)(=O)c2ccc(C)cc2)cc1OCC,-17.8
24,C=CCOCCN(CCOCC=C)C1=NS(=O)(=O)c2ccccc21,12.5
25,Cc1ccc(OC(=O)C2CCN(C(=O)c3ccccc3C)CC2)c(Br)c1,-21
26,CC(=O)N1CCc2cc(S(=O)(=O)CCC(=O)NCc3ccc(Cl)cc3)ccc21,-9.26
27,O=[N+]([O-])c1ccc2c3n([n+]([O-])c2c1)CCN=C3c1ccc(Cl)cc1,-29.6

# From article PMC4336329 (PLoS ONE, 2015)
